# In the supplement of paper PMC8728848:
# Some of the results follow.
# What was measured:
# Experiment in all cases: glycan array binding signal (z-score within array); higher = stronger binding
# Conditions in all cases: glycan notation: IUPAC condensed, linker removed
# Fuc(a1-2)Gal = biological target: Fuc(a1-2)Gal
# How it was run: (§1)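 The binding signal is a Z-score computed within each array and averaged over linkers. Arrays of the same protein sequence at different concentrations or buffers were also averaged together. Data originate from 3228 arrays in the Consortium for Functional Glycomics database, kept only where the protein sequence was available.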
# Fuc(a1-2)Gal(b1-3)GalNAc = biological target: Fuc(a1-2)Gal(b1-3)GalNAc
# How it was run: as §1
# [1] = biological target: Fuc(a1-2)Gal(b1-3)GalNAc(a1-3)[Fuc(a1-2)]Gal(b1-4)Glc
# How it was run: as §1
# [2] = biological target: Fuc(a1-2)Gal(b1-3)GalNAc(a1-3)[Fuc(a1-2)]Gal(b1-4)GlcNAc
# How it was run: as §1
# [3] = biological target: Fuc(a1-2)Gal(b1-3)GalNAc(b1-3)Gal
# How it was run: as §1
# [4] = biological target: Fuc(a1-2)Gal(b1-3)GalNAc(b1-3)Gal(a1-4)Gal(b1-4)Glc
# How it was run: as §1
# [5] = biological target: Fuc(a1-2)Gal(b1-3)GalNAc(b1-4)[Neu5Ac(a2-3)]Gal(b1-4)Glc
# How it was run: as §1
# Fuc(a1-2)Gal(b1-3)GlcNAc = biological target: Fuc(a1-2)Gal(b1-3)GlcNAc
# How it was run: as §1
# [6] = biological target: Fuc(a1-2)Gal(b1-3)GlcNAc(b1-2)Man(a1-3)[Fuc(a1-2)Gal(b1-3)GlcNAc(b1-2)Man(a1-6)]Man(b1-4)GlcNAc(b1-4)GlcNAc
# How it was run: as §1
# [7] = biological target: Fuc(a1-2)Gal(b1-3)GlcNAc(b1-2)Man(a1-3)[Fuc(a1-2)Gal(b1-3)GlcNAc(b1-2)Man(a1-6)]Man(b1-4)GlcNAc(b1-4)[Fuc(a1-6)]GlcNAc
# How it was run: as §1
# [8] = biological target: Fuc(a1-2)Gal(b1-3)GlcNAc(b1-3)Gal(b1-4)Glc
# How it was run: as §1
# [9] = biological target: Fuc(a1-2)Gal(b1-3)GlcNAc(b1-3)GalNAc
# How it was run: as §1
# [10] = biological target: Fuc(a1-2)Gal(b1-3)GlcNAc(b1-3)[Fuc(a1-2)Gal(b1-3)GlcNAc(b1-6)]GalNAc
# How it was run: as §1
# [11] = biological target: Fuc(a1-2)Gal(b1-3)GlcNAc(b1-3)[Gal(b1-4)GlcNAc(b1-6)]Gal(b1-4)Glc
# How it was run: as §1
# [12] = biological target: Fuc(a1-2)Gal(b1-3)GlcNAc(b1-3)[Neu5Ac(a2-6)Gal(b1-4)GlcNAc(b1-6)]Gal(b1-4)Glc
# How it was run: as §1
# [13] = biological target: Fuc(a1-2)Gal(b1-3)GlcNAc6S
# How it was run: as §1
# [14] = biological target: Fuc(a1-2)Gal(b1-3)[Fuc(a1-4)]GlcNAc
# How it was run: as §1
# [15] = biological target: Fuc(a1-2)Gal(b1-3)[Fuc(a1-4)]GlcNAc(b1-2)Man(a1-3)[Fuc(a1-2)Gal(b1-3)[Fuc(a1-4)]GlcNAc(b1-2)Man(a1-3)]Man(b1-4)GlcNAc(b1-4)GlcNAc
# How it was run: as §1
# [16] = biological target: Fuc(a1-2)Gal(b1-3)[Fuc(a1-4)]GlcNAc(b1-2)Man(a1-3)[Fuc(a1-2)Gal(b1-3)[Fuc(a1-4)]GlcNAc(b1-2)Man(a1-6)]Man(b1-4)GlcNAc(b1-4)[Fuc(a1-6)]GlcNAc(b1-4)[Fuc(a1-6)]GlcNAc
# How it was run: as §1
# [17] = biological target: Fuc(a1-2)Gal(b1-3)[Fuc(a1-4)]GlcNAc(b1-3)[Fuc(a1-3)[Gal(b1-4)]GlcNAc(b1-6)]Gal(b1-4)Glc
# How it was run: as §1
# [18] = biological target: Fuc(a1-2)Gal(b1-3)[Fuc(a1-4)]GlcNAc(b1-3)[Gal(b1-4)GlcNAc(b1-6)]Gal(b1-4)Glc
# How it was run: as §1
# [19] = biological target: Fuc(a1-2)Gal(b1-4)Fuc(a1-3)]GlcNAc(b1-2)Man(a1-3)[Fuc(a1-2)Gal(b1-4)[Fuc(a1-3)]GlcNAc(b1-2)Man(a1-6)]Man(b1-4)GlcNAc(b1-4)GlcNAc
# How it was run: as §1
# Fuc(a1-2)Gal(b1-4)Glc = biological target: Fuc(a1-2)Gal(b1-4)Glc
# How it was run: as §1
# Fuc(a1-2)Gal(b1-4)Glc6S = biological target: Fuc(a1-2)Gal(b1-4)Glc6S
# How it was run: as §1
# Fuc(a1-2)Gal(b1-4)GlcNAc = biological target: Fuc(a1-2)Gal(b1-4)GlcNAc
# How it was run: as §1
# [20] = biological target: Fuc(a1-2)Gal(b1-4)GlcNAc(b1-2)Man
# How it was run: as §1
# [21] = biological target: Fuc(a1-2)Gal(b1-4)GlcNAc(b1-2)Man(a1-3)[Fuc(a1-2)Gal(b1-4)GlcNAc(b1-2)Man(a1-6)]Man(b1-4)GlcNAc(b1-4)GlcNAc
# How it was run: as §1
# [22] = biological target: Fuc(a1-2)Gal(b1-4)GlcNAc(b1-2)Man(a1-3)[Fuc(a1-2)Gal(b1-4)GlcNAc(b1-2)Man(a1-6)]Man(b1-4)GlcNAc(b1-4)[Fuc(a1-6)]GlcNAc
# How it was run: as §1
# [23] = biological target: Fuc(a1-2)Gal(b1-4)GlcNAc(b1-2)[Fuc(a1-2)Gal(b1-4)GlcNAc(b1-4)]Man(a1-3)[Fuc(a1-2)Gal(b1-4)GlcNAc(b1-2)Man(a1-6)]Man(b1-4)GlcNAc(b1-4)GlcNAc
# How it was run: as §1
# [24] = biological target: Fuc(a1-2)Gal(b1-4)GlcNAc(b1-3)Gal(b1-4)GlcNAc
# How it was run: as §1
binder,measurement,setting,value
"CSA (Cytisus scoparius), P29257 (protein) SEELSFSFTKFKTDQKNLILQRDALITPTGKLQLTTVENGKPAAYSLGRALYSTPIHIWDKSTGDEASFATFFSFVISDAPNPSTAATDGLAFFLAPADTQPQSAGGYLGLFEKDSSYNSSNQIVAVEFDTYYNSAWDPQTNPHIGIDVNTIKSKKVSSWGFKNGNVATVLITYQPSSKSLVASLVYPSGQTSDKTSYIISANVDLKATVPEWVRIGFSATTGQTDNYIETHDILSWSFKSKLPATKN",glycan array binding signal (z-score),Fuc(a1-2)Gal,-0.195
same,glycan array binding signal (z-score),Fuc(a1-2)Gal(b1-3)GalNAc,-0.169
same,glycan array binding signal (z-score),[1],-0.148
same,glycan array binding signal (z-score),[2],-0.115
same,glycan array binding signal (z-score),[3],-0.171
same,glycan array binding signal (z-score),[4],-0.174
same,glycan array binding signal (z-score),[5],-0.177
same,glycan array binding signal (z-score),Fuc(a1-2)Gal(b1-3)GlcNAc,-0.188
same,glycan array binding signal (z-score),[6],0.099
same,glycan array binding signal (z-score),[7],-0.169
same,glycan array binding signal (z-score),[8],-0.178
same,glycan array binding signal (z-score),[9],-0.16
same,glycan array binding signal (z-score),[10],-0.16
same,glycan array binding signal (z-score),[11],-0.129
same,glycan array binding signal (z-score),[12],-0.198
same,glycan array binding signal (z-score),[13],-0.18
same,glycan array binding signal (z-score),[14],-0.172
same,glycan array binding signal (z-score),[15],-0.179
same,glycan array binding signal (z-score),[16],-0.207
same,glycan array binding signal (z-score),[17],-0.19
same,glycan array binding signal (z-score),[18],-0.247
same,glycan array binding signal (z-score),[19],0.041
same,glycan array binding signal (z-score),Fuc(a1-2)Gal(b1-4)Glc,-0.164
same,glycan array binding signal (z-score),Fuc(a1-2)Gal(b1-4)Glc6S,-0.106
same,glycan array binding signal (z-score),Fuc(a1-2)Gal(b1-4)GlcNAc,-0.097
same,glycan array binding signal (z-score),[20],-0.215
same,glycan array binding signal (z-score),[21],0.276
same,glycan array binding signal (z-score),[22],-0.02
same,glycan array binding signal (z-score),[23],0.047
same,glycan array binding signal (z-score),[24],0.07
